Reference: article PMC12136788
The list shows a part of the results.

T1: UNK ZnF1-3 (human, UniProt Q9C0B0 31-174)
T1 sequence: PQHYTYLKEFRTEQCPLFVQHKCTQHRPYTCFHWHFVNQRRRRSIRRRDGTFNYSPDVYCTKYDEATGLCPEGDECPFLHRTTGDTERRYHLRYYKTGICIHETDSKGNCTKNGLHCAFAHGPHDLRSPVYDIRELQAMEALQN

B1: 71835330_71835548_1477_CDS_ENSMUSG00000063884_ENSMUST00000082094|mouse|control|control (ssRNA)
RNA: GGGAGUUCUACAGUCCGACGAUCUCUAUUGGCCACAUCCAAUGCUUGAAGAAGACCUAUGAAUAUUUGGUAGUGGGGAAGGAACACUGAAGGUAUUAGGUCCUUAUACCACUUCAAGGUGACAUCAAUUUGUUCCAGUGAACACAACAGAGGAUUGAGCAUCA
B2: chr1:244855233:244855234:+_ENSG00000121644_ENST00000302550|hu_mus|hu_hu_hu_mus_True|38_88 (ssRNA)
RNA: GGGAGUUCUACAGUCCGACGAUCCAUCAGAUGGUAGGCGUUGCCCUUGUAUUCUUUCCCCAGUUCUUCUACAAUUUUCUCUAUAUCAUCUUCUAGAAAGUCCGUGCUUCCUAGAACAACAGCUUCUUUAAAUUUAAAUGUUUCCAACAGAGGAUUGAGCAUCA
B3: chr3:176768308:176768309:-_ENSG00000177565_ENST00000430069|hu_hu|FALSE|FALSE (ssRNA)
RNA: GGGAGUUCUACAGUCCGACGAUCACUAAGAUUCCAUAUUCUUGCUGUUGAGUCUCCAGACCCUGAUGCUAGGAGAUCACUAACAGGGUUCCAGGCACAGAUAAAAACUUCAGAUUCAUGGCCCCGCAACACAACAGCUUUAUUCAACAGAGGAUUGAGCAUCA
B4: chr7:140404665:140404666:+_ENSG00000090266_ENST00000247866|hu_hu|hu_hu_hu_mus_False|1_58 (ssRNA)
RNA: GGGAGUUCUACAGUCCGACGAUCUGCUCCUACUCGUCCAGAGAGUUUACAGUGUCAGUCCUCGUCAUCAGGAGGGAUACCUAAUUCUUCAUCUGUCCACUGUGAAGGAUCUGGAUAUGAAAAGUGACCCAGCACAGCUUCUGACAACAGAGGAUUGAGCAUCA
B5: chr2:217001886:217001887:+_ENSG00000079246_ENST00000392132|hu_hu|FALSE|FALSE (ssRNA)
RNA: GGGAGUUCUACAGUCCGACGAUCAUGAGGAAAAGCCACGCCGACUUGAGGAUUAGCUCUUUUGUCAUAAGCAUAUCGAACUAUGGCCACCAUGUCUAAGUCAUCCAAAGCAUGAAUCAGGGAGGAAAGUGCAACUGCAGCUGCCAACAGAGGAUUGAGCAUCA
B6: 65225615_65225735_80_5pUTR_ENSMUSG00000025950_ENSMUST00000097709|mouse|control|control (ssRNA)
RNA: GGGAGUUCUACAGUCCGACGAUCUCAGCAUCUGCCACAACCUUCGCUCGGAAGCCCAGCGGCAGGGUCAAGGCUGUUUAACUCUUCCCGGCUUUGUCUCCUCCCAGGCCCCACCCCCUCAGCCCACCUCCCGAAGCCCCGCCCCAACAGAGGAUUGAGCAUCA
B7: chr3:10168198:10168199:+_ENSG00000254999_ENST00000256463|hu_mus|motif|central (ssRNA)
RNA: GGGAGUUCUACAGUCCGACGAUCCACCUCAAACACAUUGACAAGUAGUUCCGAACAAUGUUACUGAAAAGGGAAAAAGCCGGAUGCUGUUUCCAAGAGGUCCCCUGGACUGCUUGCUCCCCCAUGCCACGUCAUACCCCAGGGCAACAGAGGAUUGAGCAUCA
B8: chrX:140365796:140365797:-_ENSMUSG00000031285_ENSMUST00000033642|mus_mus|mus_mus_mus_hu_False|78_108 (ssRNA)
RNA: GGGAGUUCUACAGUCCGACGAUCCUUCUCAUUACUUAGUGCCUGCAAGGUUCUGGUUCUGUAGAAGCUACAGUGGGCGCUGUGAGUGGGGCUAGGCAACCCAUUCAUCCGGGAGCCUCGCAUGUUCCUGGAUGUCUUAUCUCUCAACAGAGGAUUGAGCAUCA
B9: chr2:156005782:156005783:-_ENSMUSG00000027620_ENSMUST00000109587|mus_hu|motif|central (ssRNA)
RNA: GGGAGUUCUACAGUCCGACGAUCGCGGAACCGCCCAGCCCGAAUAUCGGGUUCCAAGGACGGCUAGGCCCGAGAGAAUCGGAAAAAAACAAUGGAAUUAGAGAAGCCCACGCGGGAGAGCAGGACGGCGGCUUCGGCAGCUCACAACAGAGGAUUGAGCAUCA
B10: 102312815_102312935_6131_3pUTR_ENSG00000166135_ENST00000299163|human|control|control (ssRNA)
RNA: GGGAGUUCUACAGUCCGACGAUCGACAGCUCAGUUCUUCCACACCAGCUUCCCGGGCCUGACAUCAUUCUCACAAAGUCUCCUCAGCAAUCCCUGCACCUCUCCCCUCAACUGGCCCUUGUAGGUGCCCACCCCUAACCCACCCAACAGAGGAUUGAGCAUCA
B11: chr2:42543136:42543137:+_ENSG00000143924_ENST00000318522|hu_hu|motif|central (ssRNA)
RNA: GGGAGUUCUACAGUCCGACGAUCAUCUAUUGAGUAGCGCAUCACAGAGAGCUGUUCAUUCCCGUCUGUGUGGAUAGAAACGGGAUCUCUGGUUUCUGCAUCCAGAACAAACCACCUGCCUGAGUGCGUUCCUAUGGCCACCACCAACAGAGGAUUGAGCAUCA
B12: chr9:107926503:107926504:+_ENSMUSG00000032594_ENSMUST00000035214|mus_mus|motif|central (ssRNA)
RNA: GGGAGUUCUACAGUCCGACGAUCGGGGGCCGGUUGCACACUGAUGGCAGACGAUGCAGCACAUGGACCACAAAAGGAGAGCGGAGUUGAUCCUGGCUAGUGGGAGGCCAAUGGUCACAGUCUGCUUAGUUUACUGUUCUGUCCCAACAGAGGAUUGAGCAUCA
B13: chrX:35777509:35777510:-_ENSMUSG00000016534_ENSMUST00000061755|mus_mus|motif|central (ssRNA)
RNA: GGGAGUUCUACAGUCCGACGAUCCUGUCCUUUUGUCACAUUAAAAGGUUGCACCUUUAGGUUAAAGGUGUUGAUCUGAAACGCUCGGGACACAGAAAGCACCUGCUCUUUGUUGCACAUAUAAGAACUUCCCAGAGGGGCAUCCAACAGAGGAUUGAGCAUCA
B14: 48279288_48279408_581_CDS_ENSMUSG00000038143_ENSMUST00000110367|mouse|control|control (ssRNA)
RNA: GGGAGUUCUACAGUCCGACGAUCCCUCUCGUCCAAGUGGUACCACUUACUGUUAGUUCUUAUGAGGGAGGGAGUAAUGAAAUAAGUCUGUGGGGUCACAAUGAAAUAGCCAUCCGGAGUCGGAUAGAUUUUCCUCUCCCGUACCAACAGAGGAUUGAGCAUCA

molecular target: T1, UNK ZnF1-3; test: nsRBNS (natural sequence RNA bind-n-seq); RBNS binding buffer (assumed for nsRBNS): 25 mM Tris pH 7.5, 150 mM KCl, 3 mM MgCl2, 0.01% Triton X-100, 500 ug/ml BSA, 20 U/ml SUPERase-In, 4 C; UNK is unkempt and MSI1 is Musashi-1; names of the RNAs are library labels; protein concentration not given here; high values mean tight binding

Row | Binder | binding signal [enrichment R]
1 | B1 | 1.2
2 | B2 | 1.17
3 | B3 | 0.994
4 | B4 | 1.08
5 | B5 | 1.82
6 | B6 | 1.25
7 | B7 | 1.23
8 | B8 | 0.538
9 | B9 | 1.33
10 | B10 | 1.51
11 | B11 | 0.989
12 | B12 | 1.54
13 | B13 | 1.38
14 | B14 | 2.81
